20 molecules from PMC9911399, “Two distinct binding modes provide the RNA-binding protein RbFox with extraordinary sequence specificity” can be followed below.

Where a chain is given by its changes, count along the chain named. Some of the results follow.

B1: UCGGUAC (DNA:RNA)
RNA: GGGAGACCGGAAUUCAGAUUGUCCUCGGUACUUAAAUCCCGUCGUAGCCACCA
DNA 1: CAATCTGAATTCCGGTCTCCC
DNA 2: TGGTGGCTACGACGGGATT
B2: UGAGGAG (DNA:RNA)
RNA: B1 RNA with C26G, G27A, U29G, C31G
DNA 1: CAATCTGAATTCCGGTCTCCC
DNA 2: TGGTGGCTACGACGGGATT
B3: GUCGAAC (DNA:RNA)
RNA: B1 RNA with U25G, C26U, G27C, U29A
DNA 1: CAATCTGAATTCCGGTCTCCC
DNA 2: TGGTGGCTACGACGGGATT
B4: GGGCAGC (DNA:RNA)
RNA: B1 RNA with U25G, C26G, G28C, U29A, A30G
DNA 1: CAATCTGAATTCCGGTCTCCC
DNA 2: TGGTGGCTACGACGGGATT
B5: CAGUCUA (DNA:RNA)
RNA: B1 RNA with U25C, C26A, G28U, U29C, A30U, C31A
DNA 1: CAATCTGAATTCCGGTCTCCC
DNA 2: TGGTGGCTACGACGGGATT
B6: GGCAUCC (DNA:RNA)
RNA: B1 RNA with U25G, C26G, G27C, G28A, A30C
DNA 1: CAATCTGAATTCCGGTCTCCC
DNA 2: TGGTGGCTACGACGGGATT
B7: UAGAAUU (DNA:RNA)
RNA: B1 RNA with C26A, G28A, U29A, A30U, C31U
DNA 1: CAATCTGAATTCCGGTCTCCC
DNA 2: TGGTGGCTACGACGGGATT
B8: UUUUCUG (DNA:RNA)
RNA: B1 RNA with C26U, G27U, G28U, U29C, A30U, C31G
DNA 1: CAATCTGAATTCCGGTCTCCC
DNA 2: TGGTGGCTACGACGGGATT
B9: AGAUGAC (DNA:RNA)
RNA: B1 RNA with U25A, C26G, G27A, G28U, U29G
DNA 1: CAATCTGAATTCCGGTCTCCC
DNA 2: TGGTGGCTACGACGGGATT
B10: CGUCCUG (DNA:RNA)
RNA: GGGAGACCGGAAUUCAGAUUGUCCCGUCCUGUUAAAUCCCGUCGUAGCCACCA
DNA 1: CAATCTGAATTCCGGTCTCCC
DNA 2: TGGTGGCTACGACGGGATT
B11: GGGUGCA (DNA:RNA)
RNA: B10 RNA with C25G, U27G, C28U, C29G, U30C, G31A
DNA 1: CAATCTGAATTCCGGTCTCCC
DNA 2: TGGTGGCTACGACGGGATT
B12: CGUCGAA (DNA:RNA)
RNA: B10 RNA with C29G, U30A, G31A
DNA 1: CAATCTGAATTCCGGTCTCCC
DNA 2: TGGTGGCTACGACGGGATT
B13: AUUAGUA (DNA:RNA)
RNA: B10 RNA with C25A, G26U, C28A, C29G, G31A
DNA 1: CAATCTGAATTCCGGTCTCCC
DNA 2: TGGTGGCTACGACGGGATT
B14: AGAUCAU (DNA:RNA)
RNA: B10 RNA with C25A, U27A, C28U, U30A, G31U
DNA 1: CAATCTGAATTCCGGTCTCCC
DNA 2: TGGTGGCTACGACGGGATT
B15: GUUGUGU (DNA:RNA)
RNA: B1 RNA with U25G, C26U, G27U, A30G, C31U
DNA 1: CAATCTGAATTCCGGTCTCCC
DNA 2: TGGTGGCTACGACGGGATT
B16: UAGUGUU (DNA:RNA)
RNA: B1 RNA with C26A, G28U, U29G, A30U, C31U
DNA 1: CAATCTGAATTCCGGTCTCCC
DNA 2: TGGTGGCTACGACGGGATT
B17: CAGAGGA (DNA:RNA)
RNA: B10 RNA with G26A, U27G, C28A, C29G, U30G, G31A
DNA 1: CAATCTGAATTCCGGTCTCCC
DNA 2: TGGTGGCTACGACGGGATT
B18: AAAAUGU (DNA:RNA)
RNA: B1 RNA with U25A, C26A, G27A, G28A, A30G, C31U
DNA 1: CAATCTGAATTCCGGTCTCCC
DNA 2: TGGTGGCTACGACGGGATT
B19: UGGACAU (DNA:RNA)
RNA: B1 RNA with C26G, G28A, U29C, C31U
DNA 1: CAATCTGAATTCCGGTCTCCC
DNA 2: TGGTGGCTACGACGGGATT
B20: ACUUAUG (DNA:RNA)
RNA: B10 RNA with C25A, G26C, C28U, C29A
DNA 1: CAATCTGAATTCCGGTCTCCC
DNA 2: TGGTGGCTACGACGGGATT

This assay has as its target T1, RBFOX1 RRM RbFoxmut (Fox-RRM*) (Homo sapiens, UniProt Q9NWB1 109-208, R118D;E147R;N151S;E152T).
T1 sequence: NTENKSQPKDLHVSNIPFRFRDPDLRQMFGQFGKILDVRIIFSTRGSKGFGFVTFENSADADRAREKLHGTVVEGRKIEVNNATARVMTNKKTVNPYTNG
The assay can be described thus: EMSA; HiTS-Eq, 1 nM pool, 10 min; buffer printed only for the single-RNA assays: 10 mM Tris pH 7.5, 150 mM NaCl, 3.4 mM EDTA, 0.001% NP-40, 30 C. Particulars: tags: His6 N-terminal (pET28a); label: 5' 32P. An outline of the steps:
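Relative association constants, normalised to the cognate motif, were derived by comparing read counts of each RNA species with those of the control reaction. The RNA sequenced was the free fraction, separated by 8% native PAGE after a 10 min equilibration in 50 µL of 1 nM 5′-radiolabelled RNA (7 randomized nucleotides) with increasing concentrations of purified wild-type or mutant RbFox RRM.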
Background: In EMSA bound probe runs differently from free probe, usually more slowly.
In the case of B1, the binding signal is 0.0961 KA relative to UGCAUGU.

Regarding B2, the binding signal was 0.105 KA relative to UGCAUGU.

On to B3, for which the binding signal was 0.07 KA relative to UGCAUGU.

Take B4: the binding signal is 0.0841 KA relative to UGCAUGU.

As for B5, the binding signal was 0.0907 KA relative to UGCAUGU.

Consider B6, for which the binding signal is 0.229 KA relative to UGCAUGU.

Consider B7, for which the binding signal was 0.0987 KA relative to UGCAUGU.

Consider B8, for which the binding signal is 0.0689 KA relative to UGCAUGU.

On to B9, for which the binding signal is 0.0939 KA relative to UGCAUGU.

For B10, the binding signal was 0.132 KA relative to UGCAUGU.

Consider B11, for which the binding signal is 0.234 KA relative to UGCAUGU.

Turning to B12, the binding signal is 0.137 KA relative to UGCAUGU.

As for B13, the binding signal was 0.173 KA relative to UGCAUGU.

Take B14: the binding signal was 0.0736 KA relative to UGCAUGU.

B15: the binding signal is 0.224 KA relative to UGCAUGU.

For B16, the binding signal was 0.14 KA relative to UGCAUGU.

For the molecule B17, the binding signal was 0.0888 KA relative to UGCAUGU.

B18: the binding signal is 0.101 KA relative to UGCAUGU.

Regarding B19, the binding signal is 0.0553 KA relative to UGCAUGU.

As to B20, the binding signal is 0.125 KA relative to UGCAUGU.
